According to ChEMBL document CHEMBL4888484, “Replenishing the malaria drug discovery pipeline: Screening and hit evaluation of the MMV Hit Generation Library 1 (HGL1) against asexual blood stage Plasmodium falciparum ,using a nano luciferase reporter read-out” (2022):
Out of some 150,000 compounds screened, about 540 (0.36%) showed an effect of 50% or more. The list shows a part of the results.

system: Plasmodium falciparum; test: Primary screen in NF54 nanoGlo assay, in single point, at 2uM, 72h; a lower Z score goes with more inhibition; type: functional, Erythrocyte; conditions: timepoint 72 hour

Structure (SMILES)	% Inhibition [%]	Z score
CC(C)(C)OC(=O)NCCCNCc1ccccc1OCC1CC1	-20	2.03
COc1ccc(OCC2CCN(C(=O)CC(=O)Nc3cccc(C)c3)CC2)cc1	-2	0.35
COCCN(Cc1ccc(C)o1)C(=O)C1CC2CCC1O2 (centres undefined)	0	0
CN(Cc1nc2ccccc2o1)c1cc([C@H]2C[C@@H](O)C2)nc(N)n1	-6	0.69
O=S(=O)(c1cc(Cl)ccc1Cl)N1CC(C(F)F)C1	-8	0.93
Cc1noc2ncc(C(=O)NCc3cccnc3OCc3ccccc3)cc12	-5	0.93
COc1cccc(C)c1C(=O)N1[C@@H]2CC[C@H]1C[C@@H](O)C2	8	-1.07
Cc1ccc(CCNC(=O)c2ccc3c(c2)NC(=O)[C@@H]2CCCCN32)cc1	-8	1.14
CCCCCNC(=O)c1c(C(F)(F)F)nn(C2CCN(C(C)C)CC2)c1C	-3	0.65
Cc1cc(-n2cc(C3CC3)nn2)n(C)n1	0	-0.06
Cc1ccc(N(Cc2ccco2)C(=O)[C@H]2CCCN(C(=O)c3ccc(F)cc3)C2)cc1	-3	0.58
COc1ccc([C@H]2CCCCN(C(=O)Cn3cncn3)C2)cc1	9	-1.17
CCOc1ccc(N2C[C@@H](c3nnc(N)o3)CC2=O)cc1	-14	2.43
Cc1noc(CN2CC3CCCC(C2)N3C(=O)OC(C)(C)C)n1	-3	0.31
CCN(CC(=O)N1CCc2sccc2C1COc1ccc(C(C)C)cc1)CC(O)c1ccccc1 (centres undefined)	2	-0.22
NC(=O)[C@H]1CCCN1C(=O)CC1(N2Cc3ccccc3C2=O)CCCCC1	8	-0.98
CCN1CCN(C(=O)C[C@H](c2ccc(C(C)(C)C)cc2)c2c[nH]c3ccc(OC)cc23)CC1	-7	0.84
CC(NCC1CCCn2ccnc21)c1nc(C2CC2)no1 (centres undefined)	0	0.05
Cc1cc(F)ccc1C(=O)Nc1ccc(C(=O)NCc2ccncc2)cc1	-12	2.14
C[C@](O)(CC(=O)N1CC(Nc2ccc(F)cc2)C1)C1CC1	-4	0.76
c1csc(-c2nc(CN3CCOCc4ccccc43)cs2)c1	-1	0.11

Structure (SMILES)	% Inhibition [%]	Z score
Cc1nn(C)c(=O)n1C1CCN(S(=O)(=O)c2cccc3cccnc23)CC1	-11	1.63
Cc1ccc(CNCCn2cnc(C)c2C)o1	-5	0.84
COc1ccc2cc1Oc1cccc(c1)CO[C@H]1CN(C(=O)CCc3csc(N)n3)C[C@@H]1NC(=O)CN(C)C2	4	-0.77
Cc1n[nH]c(CC(=O)N2CCC3(CCC(=O)N(CCc4ccccn4)C3)CC2)n1	1	-0.17
CCC[C@H]1CN(C(=O)COC)C[C@@H]1Nc1nc(C)c(C)cc1C(N)=O	-5	0.57
Cc1ccc(C)c([C@@H]2CC(c3ccccc3Cl)=NN2C(=O)CN2CCCCC2)c1	5	-0.75
CC(C)n1nccc1-c1ncccc1C(=O)N1C[C@@H]2CC[C@H]1C2	-16	2.02
C[C@H](Oc1ccc(-c2ccccc2)cc1)C(=O)Nc1c(-c2ccc(F)cc2)ncn1C	-9	0.94
Cc1nnc(CN(C)CCC(=O)NCc2cccs2)o1	-3	0.42
Cc1cc(C)n(-c2nc(CC(=O)N3CCCCCC3)cs2)n1	18	-2.13
COc1ccc([C@H]2C[C@@H](O)[C@@H](O)[C@@H]2NCc2cn(C)c3ccccc23)cc1	-8	1.22
CC[C@H](NC1CCN(c2ccc(C)cc2)CC1)c1cccnc1	-6	0.89
O=C(NCc1cc(F)cc(F)c1)c1cnn2c(-c3ccc4c(c3)OCO4)ccnc12	28	-3.22
CCNc1ncc(C(=O)NCCNC(=O)OC)cc1Cl	-15	1.74
COc1cccc(N2CCN(C(=O)[C@H]3CCCN(c4nc5ncccc5n5cccc45)C3)CC2)c1	-9	1.03
CN(Cc1nc(-c2ccccn2)no1)Cc1c(F)cccc1Cl	-16	1.99
O=C(Nc1ncc(Cc2ccccc2)s1)[C@@H]1COCCN1C1CCCC1	-3	0.39
COc1ccc(C(=O)c2oc3ccccc3c2NC(=O)CCc2ccccc2)cc1Cl	-4	0.44
CCN1C[C@H](CN(C)CC(=O)NCc2ccco2)Oc2ccccc21	-13	1.91
CCCOc1ccc(CNC(=O)N2CC[C@H](c3cnn(C)c3)C2)c(C)c1	2	-0.35
O=C(NCc1cccnc1)N[C@H]1COc2c1ccc(Cl)c2Cl	33	-3.69

Structure (SMILES)	% Inhibition [%]	Z score
CCn1cc(-c2nncn2-c2cccc(C(C)=O)c2)cn1	10	-1.84
CCn1cnnc1[C@H]1CCCN(c2ccc(C(F)(F)F)c(C#N)c2)C1	-16	1.67
Cn1cc(C2=CCCN(C(=O)c3nnc(C(C)(C)C)o3)C2)cn1	-11	2.13
O=C(N[C@@H](Cc1ccccc1)C(=O)O)c1occc1Br	-6	0.85
COCCOc1ccc(Br)cc1C(N)=O	-6	0.65
COc1nsc(CNC[C@H]2CN(C)CCO2)c1Cl	22	-2.79
CC(NC(=O)C1CN(C)CCO1)c1cnn(Cc2ccccc2)c1 (centres undefined)	30	-3.99
CN1C[C@H](NC(=O)c2cc3ccc(Cl)cc3n2C)C[C@H]1CO	-5	0.67
O=C(c1ccco1)N1Cc2ccccc2O[C@H](c2ccccc2)C1	8	-0.73
CC1=C[C@@H](CNC(=O)Cn2cnnn2)[C@H](C(C)C)C[C@H]1Cc1nc2ccccc2[nH]1	-8	1.24
Cc1noc([C@]2(F)CCCN(S(=O)(=O)c3cc(F)ccc3C)C2)n1	9	-1.34
CN(C(=O)c1ccco1)[C@@H](Cc1ccccc1Cl)C1CCN(Cc2cnn(C)c2)CC1	-11	1.56
O=c1[nH]c2scc(-c3ccccc3)c2c(=O)n1-c1ccccc1F	-10	1.78
COc1ccc(OC2CCN(C(C)=O)CC2)c(C(=O)N2CCCC[C@@H]2CCO)c1	-7	1.04
FC(F)(F)c1n[nH]c(CNc2cncc(-c3cccs3)n2)n1	-6	1.14
CC(c1ccccc1F)N1CCCC(NC(=O)c2c(C3CCC3)cnn2C)C1=O (centres undefined)	24	-3.06
NC(=O)c1sccc1-c1cccc(C(=O)N[C@H]2CC[C@H](O)CC2)c1	-1	0.26
Cc1csc2c(N3C[C@@H](C(F)(F)F)[C@H](C(=O)O)C3)ncnc12	-8	0.76
c1ccc(-n2ncnc2[C@@H]2COCCN2CCc2ccns2)cc1	6	-1.07
CC(C)c1noc(CN2CCC(N3CCC[C@H](C(=O)NC4CC4)C3)CC2)n1	-6	0.97
c1c([C@H]2CCOC2)nnn1Cc1n[nH]c2c1CCCCC2	-11	1.91

Structure (SMILES)	% Inhibition [%]	Z score
CCS(=O)(=O)c1ccccc1C(=O)N1CCC(C(=O)c2ccc3c(c2)NC(=O)CO3)CC1	-14	1.76
O=C(Nc1ccc(Oc2cccc3[nH]ccc23)nc1)c1ccccc1	-13	1.48
COc1cccc(CNC(=O)[C@H]2CC(=O)N(c3ccc4oc(C)nc4c3)C2)c1	-3	0.6
Cc1ccc(CN(CCN2CCCC2)Cc2ccc(C)o2)o1	32	-0.37
CC(C)(C#N)c1ccccc1CN1CCn2c(n[nH]c2=O)C1	-10	1.32
CCC(CC)Nc1cccc(NC(=O)CO)c1	3	-0.47
O=C(N[C@H]1CC(=O)N(CC(F)(F)F)C1)c1ncc2ccccc2c1O	-7	1.29
O=C(NCCN1CCCOCC1)NC1CCC(Cc2ccccc2)C1 (centres undefined)	1	-0.16
CCn1nc(CNC[C@H](C)O)c(-c2ccccc2)n1	45	-5.11
O=S(=O)(NC1=NCCC1)c1ccc(NS(=O)(=O)c2cccc(C(F)(F)F)c2)cc1	6	-0.95
Cn1c(COc2ccc3c(c2)OCO3)cc(=O)n(C)c1=O	-12	1.87
COc1ncc(CN2CCCN(Cc3ccc(F)cc3)[C@H](C(C)C)C2)cn1	-9	1.02
CN(C[C@@H]1CCCO1)C(=O)c1ccc(OCC(F)(F)F)nc1	-9	1.22
CCc1nn(C)c(Cl)c1CN1CCO[C@H]2CCCC[C@@H]21	-12	1.15
CCOc1cccc2c1OC1(C)C(C(=O)Nc3ccc(C)cc3C)C2NC(=O)N1c1ccccc1C (centres undefined)	-2	0.17
O=C(c1cn2c(n1)CCCC2)N1CCN(c2nc[nH]n2)CC1	-7	0.95
COc1ccc([C@H]2NS(=O)(=O)NC2=N)cc1	1	-0.26
CC(C)Oc1ccccc1CN1CCC(CN2C[C@@H](C(=O)NC3CC3)CC2=O)CC1	2	-0.22
Cc1c(C(=O)N2CCO[C@H](c3ccccc3)C2)cnn1-c1ccncc1	-4	0.31
